PubChem BioAssay AID1240 (Sanford-Burnham Center for Chemical Genomics, 2008)
About 800 (1.6%) of roughly 50,000 compounds showed an effect of 50% or more. The list shows a part of the results.

The molecules below were run against Bcl-2-like protein 10 (Homo sapiens) (UniProt Q9HD36) (assay: Phenotype converters, Bcl-B/TR3 peptide binding displacement, primary biochemical FP (AID 1240;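 note: 0% = Bcl-B with tracer peptide and DMSO and 100% = tracer peptide lacking Bcl-B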)). Conditions: GST-Bcl-B / FITC-TR3 peptide fluorescence polarization; stronger effect = higher value; compound at 3.75 mg/L.
Chain of UniProt Q9HD36 (Q9HD36 whole entry, looked up): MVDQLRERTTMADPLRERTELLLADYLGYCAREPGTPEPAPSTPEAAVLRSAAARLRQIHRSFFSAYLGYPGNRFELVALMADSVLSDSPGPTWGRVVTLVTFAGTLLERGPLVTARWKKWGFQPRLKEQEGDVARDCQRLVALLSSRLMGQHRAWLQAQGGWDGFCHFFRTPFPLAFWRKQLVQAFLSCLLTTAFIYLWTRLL

Q: Which displacement does the source give for `O=S(=O)(N/N=C/c1cccc(OC2CSC2)c1)c1ccccc1` here?
A: Its displacement is -1.5%.

Q: `COc1ccccc1C1C(C(=O)OCCc2ccccc2)=C(C)NC2=C1C(=O)CCC2` (stereo not drawn) was tested. Which displacement did it give?
A: The displacement was -8.6%.

Q: For `C/C(=C(\C#N)C(=O)NCc1ccccc1)N(C)C`, which displacement is on record?
A: The displacement was -8.8%.

Q: How did the displacement turn out when `NC(=O)NC(CCc1ccccc1)c1ccccc1` (stereo not drawn) was run?
A: Its displacement is 0.5%.

Q: How did the displacement turn out when `O=C(COc1ccccc1)Nc1ccc(S(=O)(=O)N2CCCCCC2)cc1` was run?
A: The displacement was -10.6%.

Q: How did the displacement turn out when `CCOc1ccc2sc(C=NC3CCCCC3)c(O)c2c1` was run?
A: The displacement was 6.3%.

Q: `COc1ccc(C2C(C(=O)OCCc3ccccc3)=C(C)NC3=C2C(=O)CCC3)cc1` (stereo not drawn) was tested. Which displacement did it give?
A: Its displacement is -7.3%.

Q: With `CC(=O)c1cccc(NC(=O)CSC2=NCCS2)c1` as the molecule, how does the displacement read?
A: Its displacement is 14.8%.

Q: For `Cc1ccc(NC(=O)Nc2cccnc2)cc1`, which displacement is on record?
A: The displacement was -3.3%.

Q: How did the displacement turn out when `O=C(Nc1ncccc1Cl)c1ccc2c(c1)OCO2` was run?
A: Its displacement is 6.1%.

Q: How did the displacement turn out when `Cc1[nH]n(S(=O)(=O)c2ccccc2)c(=O)c1N=Nc1cccc(Cl)c1` was run?
A: Its displacement is -13.8%.

Q: With `C=CCN1C(=O)/C(=C\c2ccc(-c3ccc([N+](=O)[O-])cc3)o2)C(=O)NC1=S` as the molecule, how does the displacement read?
A: The displacement was 12.1%.

Q: How did the displacement turn out when `CCCc1cc2c(-c3ccccc3)cc(=O)oc2cc1OCC(=O)O` was run?
A: The displacement was 8.7%.

Q: Which displacement does the source give for `Cc1sc(NC(=O)Cc2ccccc2)nc1-c1ccccc1` here?
A: Its displacement is 6.6%.

Q: Which displacement does the source give for `COc1ccc(/C=N/NS(=O)(=O)c2ccc(C)cc2)cc1OCc1ccccc1` here?
A: Its displacement is -2.7%.

Q: For `O=C(c1ccccc1F)N1CCN(Cc2cccc(F)c2)CC1`, which displacement is on record?
A: The displacement was -12%.

Q: With `CC1(O)CC(=O)C(C(=O)c2ccccc2)C(c2ccc([N+](=O)[O-])cc2)C1C(=O)c1ccccc1` (stereo not drawn) as the molecule, how does the displacement read?
A: Its displacement is -3.5%.

Q: With `O=C(c1cc2nc(-c3cccs3)cc(C(F)(F)F)n2n1)N1CCc2ccccc2C1` as the molecule, how does the displacement read?
A: The displacement was 13.2%.

Q: How did the displacement turn out when `COc1ccc(NC(=O)C2=C(C)NC(=S)NC2c2ccc(C)cc2)cc1` (stereo not drawn) was run?
A: The displacement was 36.2%.

Q: How did the displacement turn out when `CCOCc1ccc(O)c2ncccc12` was run?
A: The displacement was -14.7%.

Q: For `O=C(CN1C(=O)S/C(=C/c2ccccc2F)C1=O)Nc1cccc(O)c1`, which displacement is on record?
A: Its displacement is 13.2%.

Q: With `COc1ccc(C(CC(=O)c2ccc(Br)cc2)Nc2ccc([N+](=O)[O-])cc2)cc1` (stereo not drawn) as the molecule, how does the displacement read?
A: The displacement was -6%.

Q: `C=C(Br)Cn1c(C(C)O)nc2ccccc21` (stereo not drawn) was tested. Which displacement did it give?
A: The displacement was -10.9%.

Q: `COCCCNc1ccc2c3c(nc(=O)n2C)-c2ccccc2C(=O)c13` was tested. Which displacement did it give?
A: Its displacement is 139%.

Q: With `O=c1/c(=C\c2cccc(OS(=O)(=O)c3cccc([N+](=O)[O-])c3)c2)sc2nc3ccccc3n12` as the molecule, how does the displacement read?
A: Its displacement is 101%.

Q: `COc1cc2c(cc1OC)C(C)N(C(=O)C1(c3ccccc3)CCCC1)CC2` (stereo not drawn) was tested. Which displacement did it give?
A: The displacement was 1.4%.

Q: Which displacement does the source give for `CC(=O)N1CCN(c2cc(N3CCCC3)c(F)cc2[N+](=O)[O-])CC1` here?
A: The displacement was 7%.

Q: Which displacement does the source give for `O=C(CNC(=O)c1ccccc1)OCC(=O)c1ccc(Cl)cc1` here?
A: Its displacement is 6%.

Q: How did the displacement turn out when `Cc1cc(Br)ccc1OCC(=O)O/N=C(\N)c1ccncc1` was run?
A: Its displacement is 0.9%.

Q: How did the displacement turn out when `O=C(Nc1cccc(C(F)(F)F)c1)c1nn2c(c1Br)NC(c1cccs1)CC2C(F)(F)F` (stereo not drawn) was run?
A: Its displacement is 4.5%.

Q: `COc1ccccc1/C=C(\C)C(=O)c1c(C)cc(C)[nH]c1=O` was tested. Which displacement did it give?
A: The displacement was 15.6%.

Q: With `CCOC(=O)C1=C(O)/C(=C/c2ccc(OCC(=O)Nc3ccc(C)cc3)cc2)N=C1C` as the molecule, how does the displacement read?
A: Its displacement is 14.7%.

Q: For `O=C(NC12CC3CC(CC(C3)C1)C2)c1cncc(O)c1`, which displacement is on record?
A: Its displacement is -1.8%.

Q: Which displacement does the source give for `O=C(Nc1ccc(Cl)cc1)Nc1nnc(-c2cccc([N+](=O)[O-])c2)s1` here?
A: The displacement was 18.7%.

Q: `CCOC(=O)C(C)Oc1ccc2c(=O)c(Oc3ccc(OC)cc3)coc2c1` (stereo not drawn) was tested. Which displacement did it give?
A: Its displacement is 1.4%.

Q: `CC(=O)NS(=O)(=O)c1ccc(NS(=O)(=O)c2ccc([N+](=O)[O-])cc2)cc1` was tested. Which displacement did it give?
A: The displacement was -7%.

Q: Which displacement does the source give for `O=C(Nc1ccc(-c2nc3ccccc3o2)cc1)c1ccc(NC(=O)c2cc3ccccc3o2)cc1` here?
A: The displacement was 33%.

Q: How did the displacement turn out when `Cc1cc(C)c2oc(-c3ccc(NC(=S)NC(=O)c4ccco4)cc3)nc2c1` was run?
A: Its displacement is -28.6%.

Q: `Cc1ccn2c(C(=O)N/N=C\c3ccc4c(c3)OCO4)c(C)nc2c1` was tested. Which displacement did it give?
A: The displacement was 7.7%.

Q: With `Cc1cccc(C)c1OCC(=O)Nc1ccc(N(C)C)cc1` as the molecule, how does the displacement read?
A: Its displacement is 7.9%.

Q: Which displacement does the source give for `COc1ccc(CN2CCN(C(=O)c3cccc(F)c3)CC2)cc1OCc1ccccc1` here?
A: Its displacement is -10.5%.

Q: How did the displacement turn out when `Cc1ccc(OCc2nnc(NC(=O)c3ccccc3)s2)cc1C` was run?
A: The displacement was 16.2%.

Q: With `COc1ccc([N+](=O)[O-])cc1NC(=O)c1c(Cl)cccc1Cl` as the molecule, how does the displacement read?
A: The displacement was -3.9%.

Q: With `Cc1ccc(NC(=O)C2C(c3ccccc3)=C2c2ccccc2)c(C)c1` as the molecule, how does the displacement read?
A: Its displacement is 4.5%.

Q: `COc1ccc(NC(=O)/C=C/c2ccccc2Cl)c([N+](=O)[O-])c1` was tested. Which displacement did it give?
A: Its displacement is 15.9%.

Q: How did the displacement turn out when `O=C(N/N=C/c1ccc(OC(=O)c2cccs2)cc1)c1ccncc1` was run?
A: The displacement was 5.2%.

Q: For `O=[N+]([O-])c1cccc(S(=O)(=O)Nc2cccc(F)c2)c1`, which displacement is on record?
A: The displacement was 43.2%.

Q: Which displacement does the source give for `CCOC(=O)c1ccc(NC(=O)CN(c2ccc(OC)cc2)S(=O)(=O)c2ccc(C)cc2)cc1` here?
A: The displacement was 2.3%.

Q: Which displacement does the source give for `O=C(O/N=C(/c1ccncc1)c1ccc([N+](=O)[O-])cc1)c1ccccc1F` here?
A: Its displacement is 0.6%.

Q: For `Cc1nnc(SCc2ccccc2)[nH]c1=O`, which displacement is on record?
A: Its displacement is 3.9%.

Q: `O=C(/C=C/c1ccco1)Nc1cccc(Cl)c1Cl` was tested. Which displacement did it give?
A: Its displacement is 3.5%.

Q: How did the displacement turn out when `CS(=O)(=O)N(Cc1ccccc1)c1ccc(C(=O)Nc2ccc(F)c(Cl)c2)cc1` was run?
A: Its displacement is 0.4%.

Q: How did the displacement turn out when `CC(C)C(=O)Nc1ccc2oc(-c3ccc(Cl)cc3)nc2c1` was run?
A: Its displacement is 2.4%.

Q: `COc1ccccc1-c1c(C(F)(F)F)oc2cc(OC(=O)c3ccc(Cl)cc3)ccc2c1=O` was tested. Which displacement did it give?
A: The displacement was 6.7%.

Q: For `COc1cc(C2C3=C(CC(C)(C)CC3=O)OC3=C2C(=O)CC(C)(C)C3)ccc1OCc1ccccc1`, which displacement is on record?
A: The displacement was 12.6%.

Q: How did the displacement turn out when `CC(C)(C)NC(=S)Nc1ccccc1` was run?
A: Its displacement is 10.5%.

Q: `CCOC(=O)C1=CN(c2ccc(C)c(C)c2)C=C(C(=O)OCC)C1c1ccsc1` was tested. Which displacement did it give?
A: Its displacement is 0.6%.

Q: How did the displacement turn out when `CCNC(=O)c1sc2cc(C)ccc2c1Cl` was run?
A: Its displacement is -9.9%.

Q: `Cc1ccc(S(=O)(=O)N(CC(=O)NCc2ccc(Cl)cc2)Cc2ccccc2)cc1` was tested. Which displacement did it give?
A: Its displacement is -6%.

Q: How did the displacement turn out when `Cc1ccoc1C(=O)Nc1ccccc1Oc1ccccc1` was run?
A: Its displacement is -14.6%.

Q: With `CC1=NN(c2cccc(C(=O)O)c2)C(=O)/C1=C\c1ccc(O)c([N+](=O)[O-])c1` as the molecule, how does the displacement read?
A: The displacement was -33.6%.

Q: `Cc1ccc(NCC(O)Cn2c3ccccc3c3ccccc32)c(C)c1` (stereo not drawn) was tested. Which displacement did it give?
A: The displacement was 5.9%.

Q: `COc1ccc(CNC(=O)CSCC(=O)Nc2ccc3ccccc3c2)cc1` was tested. Which displacement did it give?
A: The displacement was 6.9%.

Q: How did the displacement turn out when `Cc1ccc(C(=O)CCNc2ccc(F)cc2)o1` was run?
A: The displacement was 6.3%.

Q: For `CCCOc1ccc(CSc2nncn2N)cc1`, which displacement is on record?
A: The displacement was 0.6%.

Q: Which displacement does the source give for `CC(C)(C)N1C(=O)c2ccc(C(=O)c3ccc4c(c3)C(=O)N(C(C)(C)C)C4=O)cc2C1=O` here?
A: Its displacement is 12.3%.

Q: How did the displacement turn out when `COC(=O)c1c(NC(=O)C2CCCCC2C(=O)O)sc2c1CCC(c1ccccc1)C2` (stereo not drawn) was run?
A: Its displacement is -6.6%.

Q: `COc1ccccc1C(=O)N/N=C/c1ccc(N2Cc3ccccc3C2)cc1` was tested. Which displacement did it give?
A: Its displacement is 2.8%.
